The values that follow come from ChEMBL document CHEMBL1157539, “Thousands of chemical starting points for antimalarial lead identification” (Nature, 2010).

Structures are written as SMILES. The full ranking holds about 13,000 compounds; the median of “IFI” is about 4, and the highest 2% start at about 17. Some of the results follow.

The assay is described as follows: GSK_TCMDC: Inhibition Frequency Index (IFI). The number of non-kinase HTS assays where a compound showed > 50 % inhibition, expressed as a percentage of the number of such assays in which the compound was tested (-0 is zero). It is filed as functional.
With `O=C(/C=C/c1ccc(Cl)cc1)NCCCCCN1CCCC(C(=O)Nc2cccc(Cl)c2)C1` (stereo not drawn), the IFI is 7.69%.

Turning to `Clc1ccc2c(NN=Cc3cccnc3)ccnc2c1`, the IFI was 1.5%.

Consider `CN1CCN(c2ccc(Nc3nccc(-c4c(-c5cccc(NC(=O)c6c(F)cccc6F)c5)nn5ccccc45)n3)cc2)CC1`, for which the IFI is 9.35%.

Regarding `CCOc1ccc(-c2nc(NC(=O)COc3ccc(OC)cc3)sc2C)cc1`, the IFI came out at 1.75%.

`COc1ccc(CCCCN2C(=O)C(c3ccccc3)(c3ccccc3)N=C2N)cc1`: the IFI was 7.69%.

`Cc1c(Cn2nc(Cl)c(N3CCNCC3)cc2=O)cccc1NC(=O)Nc1ccc(-c2ccccc2)cc1` came in with an IFI of 10.8%.

The compound `COc1ccc(Nc2nc(NC3CCN(Cc4ccccc4)CC3)cc(-c3ccncc3)n2)cc1` came in with an IFI of 10.3%.

`Clc1ccc(-c2cnc3ccc(NCc4ccncc4)nn23)cc1` returned an IFI of 2.29%.

Compound `COc1ccc(CN2CCC(N3CC(c4ccccc4)(c4ccccc4)OCC3=O)C2)c(O)c1` (stereo not drawn) had an IFI of 9.23%.

`CCn1c(SCc2ccccc2)nc2c1c(=O)[nH]c(=O)n2C` had an IFI of 2.8%.

The compound `COCC(C)n1c(SCC(=O)Nc2cc(C(F)(F)F)ccc2Cl)nc2ccccc2c1=O` (stereo not drawn) showed an IFI of 5%.

`CC(C)c1ccc(N2CCN(CCCCNC(=O)c3ccc(NC(=O)c4cc(Cl)cc(Cl)c4)cc3)CC2)cc1`: the IFI was -0%.

Take `Cc1ccc(C(=O)NC2CCN(CCNC(=O)Nc3cc(C)nc4ccccc34)CC2)cc1`: the IFI was 0.85%.

Compound `CN1CCN(c2ccnc3cc4c(cc23)N(Cc2ccccc2)CC4)CC1` displayed an IFI of 0.75%.

`CC1(C)NC(N)=NC(=N)N1OCCCOc1cccc2ccccc12`: the IFI worked out at 5.63%.

Consider `COc1ccccc1C1CCN(CCCCNC(=O)c2ccc(/C=C/c3cc(Cl)cc(Cl)c3)cc2)CC1`, for which the IFI came out at 9.65%.

In turn, `CC1CN(c2cnn(Cc3ccc(NC(=O)Nc4ccc(-c5ccccc5)cc4)cc3)c(=O)c2Cl)CC(C)N1` (stereo not drawn) gave an IFI of 7.64%.

`COc1cc(NC(=O)CCCN2CCN(c3cccc(Cl)c3Cl)CC2)ccc1N1CCN(C(C)C)CC1` came in with an IFI of 12.2%.

`CCc1cccc(OCCCON2C(=N)N=C(N)NC2(C)C)c1`: the IFI was 3.55%.

Consider `Cc1nc2ccc3nc(NC(=O)c4ccno4)sc3c2s1`, for which the IFI was determined as 1.89%.

`CCC(C)CN1CCN(c2cc(NC(=O)c3cccs3)ccn2)C(C)C1` (stereo not drawn) returned an IFI of 5.71%.

On to `CCn1c(-c2nonc2N)nc2c(-c3cccc(NC(=O)Nc4ccc(Cl)cc4)c3)ncc(OCCCN)c21`, for which the IFI turned out to be 19.3%.

`Cc1cc(O)c(CN2CCN(Cc3cccs3)CC2)cc1C(C)C` had an IFI of 6%.

Regarding `O=C(Nc1ccc(OC2CCN(Cc3ccccc3)C2)c(Cl)c1)c1ccco1` (stereo not drawn), the IFI came to 3.28%.

Compound `COc1ccc2nccc([C@@H](O)CN3CCC(NCc4ccc5nsnc5c4)CC3)c2c1` came in with an IFI of -0%.

`N#Cc1ccc(C(=O)Nc2cc(-c3cccc(O)c3)cc3[nH]ncc23)cc1` returned an IFI of 0%.

In the case of `CC1CNC(c2ccc(NC(=O)Nc3ccc(C4=NC(C)CN4)cc3)cc2)=N1` (stereo not drawn), the IFI came out at 0.79%.

Turning to `CCCc1cc(NC2CCN(C)CC2)nc(Nc2cccc(OC)c2)n1`, the IFI turned out to be 2.94%.

`Cc1cccc2nc(-c3cccc(-c4ccc(NC(=O)c5cnn6cccnc56)cc4)c3)[nH]c12` gave an IFI of 6.54%.

Consider `COc1ccc2ccccc2c1CCCCN1CCN(CC(c2ccc(F)cc2)N2CCC(N3CCCC3)CC2)CC1` (stereo not drawn), for which the IFI was found to be 13.6%.

For `COc1ccc2nccc([C@@H](O)CN3CCC(NCc4[nH]c5ccccc5c4F)CC3)c2c1`, the IFI was found to be 5.19%.

`CC(=O)N1N=C(c2ccccc2)Sc2c1nc(-c1ccc(Cl)cc1)n2C(C)=O` returned an IFI of 4.41%.

Consider `CC(C)C[C@H](NC(=O)c1ccc(F)cc1)C(=O)N[C@H](/C=N/NC(=O)c1ccccc1)CCc1ccccc1`, for which the IFI turned out to be 5.31%.

In turn, `N=C(N)NN=Cc1ccc2c(c1)Cc1ccccc1-2` returned an IFI of 5.8%.

`Cc1cccc2nc(-c3cccc(-c4cccc(NC(=O)Nc5cccc(C#N)c5)c4)c3)[nH]c12`: the IFI stood at 8%.

Consider `COc1ccc(NC(=O)CCNc2cc(C)nc(Nc3ccccc3)n2)cc1`, for which the IFI came to 0%.

Consider `Nc1cccc(CNCc2cccc(-c3cccc(-c4nc5cc(F)ccc5[nH]4)c3)c2)c1`, for which the IFI amounted to 8.41%.

With `CN(c1ccc(NC(=O)c2ccc(F)cc2)cc1)C1CCN(Cc2cccc(F)c2)C1` (stereo not drawn), the IFI amounted to 5.71%.

Consider `CCc1ccc(C2CCN(CCCCNC(=O)c3ccc(-c4ccc(Cl)cc4)cc3)CC2)c(O)c1`, for which the IFI is 8.49%.

Compound `Cc1cnc(C[S+]([O-])c2nc3cc(C(F)(F)F)ccc3[nH]2)cc1OCc1ccccc1` (stereo not drawn) displayed an IFI of 2.94%.

As for `O=C(/C=C/c1ccc(F)cc1)NC1CCC(CCN2CCCN(c3ccc(C(F)(F)F)cn3)CC2)CC1` (stereo not drawn), the IFI stood at 5.11%.

In turn, `Cn1nc2ccc3ccccc3c2nc1=N` gave an IFI of 10.3%.

Compound `COc1ccc(NC(=O)c2ccc(NC(=O)c3ccc(Cl)cc3)cc2)cc1N1CCN(C)CC1` came in with an IFI of 1.79%.

`CCNc1cc(C(=O)N[C@@H](Cc2ccccc2)[C@H](O)CNC(C)(C)CCCC(C)C)cc(N2CCCC2=O)c1` gave an IFI of 2.96%.

Take `COc1ccccc1CNC(=O)c1ccc(N2CCN(c3ccncc3)CC2)cn1`: the IFI came out at 9.09%.

In the case of `CCc1c(CCNCCCCCCNCCc2ccc3c(c2C)OCO3)ccc2c1OCO2`, the IFI turned out to be 14.1%.

In the case of `COc1ccc(CNC(=O)c2cnc3c(O)cccc3c2Nc2cccc(NC(=O)c3ccc(F)cc3)c2)cc1`, the IFI worked out at 6.98%.

The compound `Cc1ccc(N(CCC(=N)N)Cc2ccccc2)cc1` displayed an IFI of 4.29%.

Compound `CN(c1ccccc1C(=O)Nc1ccccc1Oc1ccccc1)S(=O)(=O)c1ccccc1` gave an IFI of 0%.

`CCN(CC)CCN(Cc1ccc(-c2ccc(C(F)(F)F)cc2)cc1)C(=O)Cn1c(CCc2c(F)cc(F)cc2F)nc(=O)c2ccccc21` registered an IFI of 5.04%.

Turning to `O=C(Cc1ccc(NC(=O)c2ccc(O)c(-c3ccc(Cl)c(Cl)c3)c2)cc1)NCCN1CCOCC1`, the IFI came to 0.74%.

In turn, `COc1cc(CNCCCCCCNCc2cc(OC)c(OC)c3ccccc23)c2ccccc2c1OC` gave an IFI of 7.41%.

Turning to `CN(C1CCC(NC(=O)/C=C/c2ccccc2)CC1)C1CC2(CCN(C(=O)OC(C)(C)C)CC2)c2ccccc21` (stereo not drawn), the IFI came to 3.03%.

Compound `CCn1ncc(Cl)c1CN(C)S(=O)(=O)c1ccc2ccccc2c1` gave an IFI of 11.1%.

For the compound `CCOc1cccc2nc(NCCCNCc3ccc(Cl)c(Cl)c3)cc(NCCCNCc3ccc(Cl)c(Cl)c3)c12`, the IFI came out at 8.39%.

Turning to `COc1ccc2c(=NN=Cc3ccc(F)cc3)cc(C)[nH]c2c1`, the IFI amounted to 2.26%.

`COCCn1c(SC(C)C(=O)Nc2cc(C(F)(F)F)ccc2Cl)nc2ccccc2c1=O` (stereo not drawn) had an IFI of 2.08%.

In turn, `N=C(/N=C(/NCCCCCCN/C(=N\C(=N)Nc1ccc(Cl)cc1)N1CCCCC1)N1CCCCC1)Nc1ccc(Cl)cc1` had an IFI of 10.9%.
